55 molecules from article PMC4336329 (PLoS ONE, 2015) can be followed below.

The structures appear in SMILES notation. Among all 310,000 compounds or so, about 14,000 (4.5%) showed an effect of 50% or more. Effects have a minus sign here. The list shows a part of the results.
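Also: peak tail current of the secondary pulse compared with the same well before compound.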

The target in the assay is human ether-à-go-go-related gene (hERG) potassium channel (human, UniProt Q12809). In words: primary screen, population patch clamp on CHO cells stably expressing hERG.
human ether-à-go-go-related gene (hERG) potassium channel, sequence (Q12809 whole entry, looked up): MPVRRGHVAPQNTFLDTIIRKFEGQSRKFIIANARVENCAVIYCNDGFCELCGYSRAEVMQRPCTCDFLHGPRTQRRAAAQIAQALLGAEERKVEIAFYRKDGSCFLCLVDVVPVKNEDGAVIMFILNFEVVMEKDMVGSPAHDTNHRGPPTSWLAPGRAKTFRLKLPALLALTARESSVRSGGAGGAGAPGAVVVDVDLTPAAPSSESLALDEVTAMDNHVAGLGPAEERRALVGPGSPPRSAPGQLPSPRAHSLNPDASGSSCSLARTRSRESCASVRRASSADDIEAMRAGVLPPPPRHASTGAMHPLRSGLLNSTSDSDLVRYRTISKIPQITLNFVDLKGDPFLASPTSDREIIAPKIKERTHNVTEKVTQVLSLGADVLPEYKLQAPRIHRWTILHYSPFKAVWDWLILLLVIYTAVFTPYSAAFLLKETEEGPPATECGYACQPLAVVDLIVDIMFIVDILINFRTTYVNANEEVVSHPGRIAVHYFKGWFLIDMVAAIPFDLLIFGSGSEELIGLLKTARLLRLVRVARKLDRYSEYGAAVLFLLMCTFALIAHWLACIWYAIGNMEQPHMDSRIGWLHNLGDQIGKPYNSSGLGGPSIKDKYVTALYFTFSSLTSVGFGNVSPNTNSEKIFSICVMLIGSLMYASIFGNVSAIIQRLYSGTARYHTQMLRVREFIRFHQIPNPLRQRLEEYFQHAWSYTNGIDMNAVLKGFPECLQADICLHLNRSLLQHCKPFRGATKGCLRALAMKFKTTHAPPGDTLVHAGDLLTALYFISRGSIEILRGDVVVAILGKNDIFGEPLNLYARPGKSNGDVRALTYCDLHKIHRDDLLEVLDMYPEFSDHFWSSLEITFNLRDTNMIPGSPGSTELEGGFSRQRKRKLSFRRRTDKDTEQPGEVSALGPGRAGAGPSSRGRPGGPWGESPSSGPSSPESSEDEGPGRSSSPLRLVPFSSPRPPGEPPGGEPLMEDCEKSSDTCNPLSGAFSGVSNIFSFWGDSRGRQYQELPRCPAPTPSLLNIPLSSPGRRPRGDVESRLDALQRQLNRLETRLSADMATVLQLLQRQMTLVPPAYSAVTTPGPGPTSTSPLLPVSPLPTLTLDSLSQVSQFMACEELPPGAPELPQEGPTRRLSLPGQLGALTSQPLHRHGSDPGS
Take `CC(C)Cn1c(NCCO)nc2ccccc21`: the “hERG current change (%, negative = inhibition) at 10uM” value is on record as -1.97%.
The result for `CN1CCN(Cc2nc3cc(NC(=O)COc4ccc([N+](=O)[O-])cc4)ccc3n2C)CC1` reads 9.29%.
The result for `COc1ccc(N2CCN(C(=O)c3ccc4c(Cl)c5c(nc4c3)CCCC5)CC2)cc1` reads 6.33%; that for `COc1cccc(-c2cnc(OC(C)(C)C)nc2OC(C)(C)C)c1`, 14.7%.
The result for `Cc1cc(NC(=O)c2ccc3c(c2)OCO3)ccc1NC(=O)c1ccco1` reads -3.87%; that for `O=C(Cc1c[nH]c2ccccc12)NCc1ccccc1F`, 24.5%; that for `Cc1[nH]n(C(N)=S)c(=O)c1N=Nc1ccc([N+](=O)[O-])cc1Cl`, -5.43%.
With `O=C(c1cccc([N+](=O)[O-])c1)N1CC2C3C=CC(C3)C2C1` (stereo not shown), the “hERG current change (%, negative = inhibition) at 10uM” value was determined as 17.8%.
The result for `COc1cccc(C(=O)Nc2cc(C(=O)NCc3ccc(C)cc3)ccc2N2CCC3(CC2)CC(c2ccccc2)=NO3)c1` reads -5.34%.
The result for `O=C(NNS(=O)(=O)c1ccc(Br)cc1)c1ccccc1-n1cccc1` reads -10.5%; that for `O=C(O)/C=C\C(=O)NNC(=O)c1cc(-c2ccccc2)n[nH]1`, 6%; that for `O=C(CN1CCc2cc3c(cc2C1)OCCCO3)Nc1ccc(S(=O)(=O)N2CCCC2)cc1`, 9.41%.
`CC(NS(=O)(=O)c1ccc2c(c1)CC(C)N2C(=O)C1CC1)c1ccccc1` (stereo not shown): the “hERG current change (%, negative = inhibition) at 10uM” value worked out at 8.28%.
The result for `Cc1ccnc(SCC(=O)Nc2c(C)n(C)n(-c3ccccc3)c2=O)n1` reads 17.7%.
The result for `CCN(CC)Cc1c(O)ccc2occ(C(=O)c3ccccc3)c12` reads -72.6%; that for `O=C(Nc1cccc(Cl)c1)Nc1ccc(Br)cc1F`, 9.99%; that for `CCc1cc2c(=O)c(-c3ccc(F)cc3)c(C(F)(F)F)oc2cc1OCC(=O)O`, 18.4%.
The result for `CC(C)OC(=O)CSc1nnc(-c2ccc(O)cc2)n1Cc1ccccc1` reads -18.4%; that for `Cc1ccc(C(=O)NC2CCCC2)s1`, 12.7%; that for `Nc1nc(SCC(=O)c2ccc(Br)s2)n[nH]1`, 22.4%.
`O=[N+]([O-])c1cccc(CN2CCN(S(=O)(=O)Cc3ccccc3)CC2)c1`: the “hERG current change (%, negative = inhibition) at 10uM” value is given as -2.95%.
The result for `O=C(CN1CCCCC1)N1CCCc2c1c(=O)oc1ccc(OCc3ccccc3)cc21` reads -54.6%.
The result for `O=C(COC(=O)C1CCC(=O)N1)Nc1ccccc1Br` (stereo not shown) reads 1.21%.
The result for `COc1ccccc1N1CCN(Cc2cc3c(cc2[N+](=O)[O-])OCO3)CC1` reads -28%.
On to `CC(=O)c1ccc(NS(=O)(=O)Cc2ccccc2)cc1`, for which the “hERG current change (%, negative = inhibition) at 10uM” value was 3.41%.
The result for `CCN(CC)S(=O)(=O)c1cccc(C(=O)N/N=C/c2cc(OC)c(O)c(OC)c2)c1` reads -16.8%; that for `CSc1cccc(N2CC(C(=O)NCCN3C(=O)S/C(=C\c4cccnc4)C3=O)CC2=O)c1` (stereo not shown), -68.3%.
The result for `NC(=O)Cn1c(=O)n(-c2ccccc2)c(=O)c2oc3ccccc3c21` reads 1.97%; that for `COC(=O)c1sc(NC(=O)COc2cccc3ccccc23)nc1C`, 9.42%.
The result for `C[C@H](O)CC(=O)[O-].[Na+]` reads 4.73%; that for `CN(C)S(=O)(=O)c1ccc(N2CCCC2)c(C(=O)Nc2cccc(F)c2)c1`, 0.224%.
Consider `CCOC(=O)N1CCN(S(=O)(=O)c2ccc(C(=O)Nc3nnc(C)o3)cc2)CC1`, for which the “hERG current change (%, negative = inhibition) at 10uM” value is on record as 4.83%.
The result for `O=C(Nc1ccccc1)C1=C[C@@H](c2coc3ccccc3c2=O)C[C@@H](OCCCCO)O1` reads -41.1%; that for `Cc1nn(-c2ncc(C(F)(F)F)cc2Cl)c(=O)n1-c1c(F)cccc1F`, 16.1%; that for `S=c1[nH]nc(-c2c[nH]c3ccccc23)o1`, 25.4%.
As to `O=C(CSc1n[nH]c(=O)n1-c1cccnc1)N1CCOCC1`, the “hERG current change (%, negative = inhibition) at 10uM” value was found to be 12%.
Consider `CCC(C)(C)NC(=O)Cc1ccc(OC)c(OC)c1`, for which the “hERG current change (%, negative = inhibition) at 10uM” value came to 9.29%.
Consider `COc1cccc(C(=O)Nc2ccc(NC(=O)c3ccco3)cn2)c1`, for which the “hERG current change (%, negative = inhibition) at 10uM” value was -15.1%.
As to `CCOc1ccc(CN2CCN(Cc3cc4ccccc4o3)CC2CCO)cc1` (stereo not shown), the “hERG current change (%, negative = inhibition) at 10uM” value is -80.4%.
The result for `COc1ccc(N2CCN(C(C)C(=O)N3CC(C)OC(C)C3)CC2)cc1.O=C(O)C(=O)O` (stereo not shown) reads 18%; that for `Br.CCC1(C)CC(c2nc(-c3ccc(OC)cc3)cs2)CCS1` (stereo not shown), 1.55%; that for `Cc1ccc(/C=C/C(=O)NCCc2c[nH]c3ccccc23)o1`, -7.78%.
The result for `COC(=O)c1sc2nc(SCc3ccccc3C#N)n(N)c(=O)c2c1C` reads 9%.
The result for `COC(=O)Sc1nc(N2CCOCC2)c2c(c1C#N)CC(C)(C)OC2` reads 6.22%; that for `Cc1ccc(C(=O)NCCCNCCCN(C)C)cn1.O=C(O)/C=C/C(=O)O`, -8.66%.
In the case of `Cc1scc(C(=O)N/N=C/c2ccc(OCC(C)C)cc2)c1C`, the “hERG current change (%, negative = inhibition) at 10uM” value worked out at 9.36%.
The result for `Cc1cc(C)c2cc(C#N)c(N3CCCN(C(=S)NCCCN(C)C)CC3)nc2c1` reads -25.7%; that for `Cc1cc(C(=O)Nc2ccc(Nc3ccccc3)cc2)ccc1[N+](=O)[O-]`, 17.3%; that for `O=C(CSc1ccccn1)N1CCN(c2cccc(Cl)c2)CC1`, -11.3%.
For `O=C(Nc1ccccc1F)c1ccc(-n2cncn2)nc1`, the “hERG current change (%, negative = inhibition) at 10uM” value came to 4.88%.
The result for `Nc1c(N(CCCO)C(=O)C2CCCC2)c(=O)[nH]c(=O)n1Cc1ccccc1` reads 11.3%.
The result for `CCN1CCN(CCCNC(=O)c2ccc3c(c2)N(Cc2ccccc2)CCS3)CC1` reads -39.3%.
Turning to `COC(=O)C1=C(c2ccc(F)cc2OCc2ccccc2)C[C@@H]2CC[C@H]1N2C(=O)NCc1ccc2[nH]ccc2c1`, the “hERG current change (%, negative = inhibition) at 10uM” value came out at 19.4%.
The result for `COc1cccc(C(C(=O)NC(C)(C)C)N(C(=O)CCC(=O)Nc2cc(C)on2)c2ccc3c(c2)OCCO3)c1OC` (stereo not shown) reads 14.2%.
The result for `Cc1c(C(=O)N(CCc2ccccc2)Cc2ccccc2)cccc1[N+](=O)[O-]` reads 15.6%.
